The supplement of paper PMC13016719
MIC of multidrug-resistant clinical P. aeruginosa isolates by reference broth microdilution, Sensititre or Phoenix panel; µg/mL of the β-lactam, with the inhibitor fixed at 4 µg/mL where named; higher = less susceptible; each panel covers only a few steps. No active / inactive call per row; the paper applies CLSI M100 breakpoints. The methods often differ by one or more steps on the same isolate. Several isolates can come from one patient. PDC is the chromosomal AmpC β-lactamase of the species; the number names its allele. Isolates are numbered anew.

Key:
Assay in all cases: Reference broth microdilution (once per isolate) and two commercial panels; inhibitor fixed at 4 µg/mL.
[1] = compound: C[C@@H](O)[C@H]1C(=O)N2C(C(=O)O)=C(SCCNC=N)C[C@H]12 [imipenem]; settings: reference broth microdilution
[2] = compound: CC(C)(O/N=C(\C(=O)N[C@@H]1C(=O)N2C(C(=O)[O-])=C(C[n+]3ccccc3)CS[C@H]12)c1csc(N)n1)C(=O)O [ceftazidime] (with: avibactam 4 µg/mL)
[3] = compound: Cn1c(N)c(NC(=O)NCCN)c[n+]1CC1=C(C(=O)[O-])N2C(=O)[C@@H](NC(=O)/C(=N\OC(C)(C)C(=O)O)c3nsc(N)n3)[C@H]2SC1 [ceftolozane] (with: tazobactam 4 µg/mL)

Test System	MIC [1] [µg/mL]	MIC ([2]; BD Phoenix panel) [µg/mL]	MIC ([2]; reference broth microdilution) [µg/mL]	MIC ([3]; BD Phoenix panel) [µg/mL]	MIC ([3]; reference broth microdilution) [µg/mL]	MIC ([2]; Sensititre panel) [µg/mL]	MIC ([3]; Sensititre panel) [µg/mL]
Pseudomonas aeruginosa isolate 99 (PDC allele: blaPDC-364)	≤ 1	8	8	≤ 1	≤ 1		
Pseudomonas aeruginosa isolate 100 (PDC allele: blaPDC-1)	8	8	16	≤ 1	2		
Pseudomonas aeruginosa isolate 101 (PDC allele: blaPDC-15)	2	8	16	≤ 1	2		
Pseudomonas aeruginosa isolate 102 (PDC allele: blaPDC-3)	> 8	8	8	≤ 1	≤ 1		
Pseudomonas aeruginosa isolate 103 (PDC allele: blaPDC-1)	≤ 1	8	≤ 4	2	≤ 1		
Pseudomonas aeruginosa isolate 104 (PDC allele: blaPDC-34)	≤ 1	2	≤ 4	≤ 1	≤ 1		
Pseudomonas aeruginosa isolate 105 (PDC allele: blaPDC-172)	> 8	4	≤ 4	≤ 1	≤ 1		
Pseudomonas aeruginosa isolate 106 (PDC allele: blaPDC-3)	4	2	≤ 4	2	2	≤ 4	2
Pseudomonas aeruginosa isolate 107 (PDC allele: blaPDC-16)	> 8	4	8	≤ 1	2	8	2
Pseudomonas aeruginosa isolate 108 (PDC allele: blaPDC-19a)	2	4	8	2	2	8	4
Pseudomonas aeruginosa isolate 109 (PDC allele: blaPDC-3)	≤ 1	4	16	≤ 1	4	16	4
Pseudomonas aeruginosa isolate 110 (PDC allele: blaPDC-30)	> 8	2	≤ 4	≤ 1	2		
Pseudomonas aeruginosa isolate 111 (PDC allele: blaPDC-3)	≤ 1	8	≤ 4	≤ 1	≤ 1		
Pseudomonas aeruginosa isolate 112 (PDC allele: blaPDC-71)	> 8	4	≥ 32	2	8		
Pseudomonas aeruginosa isolate 113 (PDC allele: blaPDC-5)	2	4	≤ 4	2	4	≤ 4	4
Pseudomonas aeruginosa isolate 114 (PDC allele: blaPDC-46)	≤ 1	2	≤ 4	≤ 1	≤ 1	≤ 4	≤ 1
Pseudomonas aeruginosa isolate 115 (PDC allele: blaPDC-121)	> 8	8	8	≤ 1	2	8	2
Pseudomonas aeruginosa isolate 116 (PDC allele: blaPDC-24)	> 8	8	8	4	8	8	8
Pseudomonas aeruginosa isolate 117 (PDC allele: blaPDC-24)	8	4	16	4	8	8	8
Pseudomonas aeruginosa isolate 118 (PDC allele: blaPDC-1)	> 8	2	8	≤ 1	2	8	4
Pseudomonas aeruginosa isolate 119 (PDC allele: blaPDC-1)	8	2	≤ 4	≤ 1	≤ 1	≤ 4	≤ 1
Pseudomonas aeruginosa isolate 120 (PDC allele: blaPDC-3)	> 8	8	8	4	4	8	4
Pseudomonas aeruginosa isolate 121 (PDC allele: blaPDC-8)	> 8	8	8	≤ 1	4		

Test System	MIC [1] [µg/mL]	MIC ([2]; BD Phoenix panel) [µg/mL]	MIC ([2]; reference broth microdilution) [µg/mL]	MIC ([3]; BD Phoenix panel) [µg/mL]	MIC ([3]; reference broth microdilution) [µg/mL]	MIC ([2]; Sensititre panel) [µg/mL]	MIC ([3]; Sensititre panel) [µg/mL]
Pseudomonas aeruginosa isolate 122 (PDC allele: blaPDC-35, carbapenemase gene: blaKPC-2)	> 8	8	≤ 4	> 8	8		
Pseudomonas aeruginosa isolate 123 (PDC allele: blaPDC-8)	2	4	≤ 4	2	≤ 1		
Pseudomonas aeruginosa isolate 124 (PDC allele: blaPDC-117)	≤ 1	4	≤ 4	≤ 1	4		
Pseudomonas aeruginosa isolate 125 (PDC allele: blaPDC-56)	2	8	≤ 4	2	≤ 1		
Pseudomonas aeruginosa isolate 126 (PDC allele: blaPDC-46)	≤ 1	4	≤ 4	≤ 1	2		
Pseudomonas aeruginosa isolate 127 (PDC allele: blaPDC-1)	2	2	≤ 4	2	2		
Pseudomonas aeruginosa isolate 129 (PDC allele: blaPDC-11)	2	8	8	2	2	≤ 4	≤ 1
Pseudomonas aeruginosa isolate 131 (PDC allele: blaPDC-8)	8	2	8	≤ 1	≤ 1	≤ 4	≤ 1
Pseudomonas aeruginosa isolate 132 (PDC allele: blaPDC-8)	≤ 1	2	≤ 4	≤ 1	2		
Pseudomonas aeruginosa isolate 133 (PDC allele: blaPDC-5)	2	4	≤ 4	2	2	8	4
Pseudomonas aeruginosa isolate 134 (PDC allele: blaPDC)	≤ 1	4	≤ 4	2	2	≤ 4	≤ 1
Pseudomonas aeruginosa isolate 135 (PDC allele: blaPDC-3)	4	8	16	2	8		
Pseudomonas aeruginosa isolate 136 (PDC allele: blaPDC-34)	8	2	≤ 4	2	2		
Pseudomonas aeruginosa isolate 137 (PDC allele: blaPDC-10)	> 8	> 8	≥ 32	4	8		
Pseudomonas aeruginosa isolate 138 (PDC allele: blaPDC-1)	> 8	4	≤ 4	2	≤ 1	≤ 4	2
Pseudomonas aeruginosa isolate 139 (PDC allele: blaPDC-402)	≤ 1	8	16	≤ 1	2		
Pseudomonas aeruginosa isolate 141 (PDC allele: blaPDC-34)	2	4	≤ 4	2	2		
Pseudomonas aeruginosa isolate 142 (PDC allele: blaPDC-1)	> 8	8	8	2	2		
Pseudomonas aeruginosa isolate 143 (PDC allele: blaPDC-5)	2	> 8	8	2	≥ 16		
Pseudomonas aeruginosa isolate 144 (PDC allele: blaPDC-3)	≤ 1	8	8	> 8	≥ 16		
Pseudomonas aeruginosa isolate 145 (PDC allele: blaPDC-31)	≤ 1	8	16	≤ 1	2		
Pseudomonas aeruginosa isolate 146 (PDC allele: blaPDC-3)	4	> 8	16	2	2	16	2
